Data reported in the supplement of paper PMC4166925.
± gives the standard deviation of the averaged measurements. Whole data set: some 33,000 sequences, median “E-score (dimensionless, -0.5 to 0.5)” near -0.049, cut for the highest 2% near 0.37. Some of the results follow.

Test system: T1, PmTbr T-box DNA-binding domain (GST fusion)
T1 sequence: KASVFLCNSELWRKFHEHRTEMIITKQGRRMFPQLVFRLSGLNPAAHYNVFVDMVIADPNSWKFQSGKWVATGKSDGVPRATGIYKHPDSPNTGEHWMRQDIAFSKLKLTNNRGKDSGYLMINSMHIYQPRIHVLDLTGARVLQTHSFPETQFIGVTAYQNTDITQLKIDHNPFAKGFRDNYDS
Assay: PBM E-score of 8-mer (E-score (dimensionless, -0.5 to 0.5)); Tbr is Tbrain of the sea star Patiria miniata (Pm) or the sea urchin Strongylocentrotus purpuratus (Sp); higher = stronger binding preference; most listed sequences are background and not binding sites
Details: the construct has about 5 more residues each side
Summary of the method: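 Using the Universal PBM Analysis Suite, every ungapped 8-mer received an enrichment E-score averaged over duplicate arrays. Probe intensities came from double-stranded Universal Agilent oligonucleotide arrays incubated with 200 nM GST-fused Tbr T-box DNA-binding domain in PBS (pH 7.5). That protein was expressed in BL21 E. coli at 20 °C and purified by glutathione affinity chromatography.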

Row | Sequence | PBM E-score of 8-mer
1 | AAAGATTA | -0.225 ± 0.014
2 | CGCTCTTC | -0.146 ± 0.054
3 | GGACAGAA | -0.212 ± 0.019
4 | CCTAACAG | 0.128 ± 0.033
5 | TCGCCTAA | 0.0836 ± 0.0081
6 | CATGGCTA | -0.226 ± 0.015
7 | GCTTATTA | -0.0887 ± 0.019
8 | ACGTTATG | 0.0687 ± 0.0031
9 | AGCTCATC | -0.256 ± 0.028
10 | AACTCGAA | -0.148 ± 0.026
11 | GACGGGCA | -0.257 ± 0.03
12 | CGCAGTAC | 0.0923 ± 0.025
13 | CTTGCTGC | 0.025 ± 0.004
14 | CGTTCAAC | -0.0931 ± 0.075
15 | GATGCAAC | -0.119 ± 0.089
16 | TTAAGGAA | -0.0478 ± 0.056
17 | CTAGATCA | -0.25 ± 0.079
18 | ACCGTGAG | 0.174 ± 0.0084
19 | AGGAAAGG | -0.193 ± 0.007
20 | ACACGAAG | -0.0155 ± 0.044
21 | AAATGTTC | -0.0691 ± 0.07
22 | CTTTGAGA | -0.059 ± 0.0076

Row | Sequence | PBM E-score of 8-mer
23 | ATTCCGCA | 0.017 ± 0.018
24 | AACCCATG | -0.124 ± 0.012
25 | CAACATTC | 0.0444 ± 0.017
26 | TGCCACAA | 0.137 ± 0.028
27 | CGTTACGC | -0.0894 ± 0.037
28 | CCCCCTTC | -0.225 ± 0.019
29 | CTAAAAGC | -0.0348 ± 0.085
30 | AGCGCTTC | 0.0651 ± 0.013
31 | CAAAATGG | -0.00466 ± 0.074
32 | CCCGAACG | -0.194 ± 0.029
33 | TAACGGAA | -0.0214 ± 0.025
34 | CACTTGGG | 0.296 ± 0.047
35 | ACCCGGGT | -0.106 ± 0.075
36 | ACGGGACC | -0.214 ± 0.053
37 | CTCGAGGA | 0.136 ± 0.044
38 | AAGAGCAT | -0.148 ± 0.12
39 | ACATGGTG | 0.243 ± 0.0055
40 | AGTATCAG | -0.105 ± 0.034
41 | ATGGCAAG | 0.143 ± 0.0085
42 | CTGATCCC | -0.0199 ± 0.054
43 | CTACATAG | 0.0333 ± 0.043
44 | AAGCTCAC | 0.131 ± 0.011

Row | Sequence | PBM E-score of 8-mer
45 | AGATGGCT | -0.0173 ± 0.0068
46 | CCCCTCGG | -0.194 ± 0.016
47 | GCTTGCGA | 0.105 ± 0.024
48 | ATTCATTG | -0.157 ± 0.03
49 | ACCACGAC | 0.0482 ± 0.0056
50 | GCCAATAC | 0.0256 ± 0.028
51 | ATAAGTGA | 0.214 ± 0.011
52 | AGCTGCCC | -0.168 ± 0.015
53 | AGCGTAGA | -0.103 ± 0.091
54 | AATCAGGA | -0.264 ± 0.028
55 | ACAACGGA | 0.0177 ± 0.034
56 | ATCACATG | 0.286 ± 0.019
57 | GACCCGCC | -0.0321 ± 0.059
58 | AATAGGTC | -0.258 ± 0.012
59 | ACCGATTA | -0.0842 ± 0.0046
60 | AATAGCGA | 0.285 ± 0.042
61 | AAACCACT | -0.263 ± 0.011
62 | GCCCGGAC | -0.187 ± 0.054
63 | CTGATTGA | -0.151 ± 0.033
64 | CCTCCGAA | -0.0356 ± 0.0086
65 | GAACAGGC | -0.135 ± 0.075
66 | AATACCTG | 0.0448 ± 0.035

Row | Sequence | PBM E-score of 8-mer
67 | ACTCGCTA | 0.282 ± 0.022
68 | GCACTTCC | 0.365 ± 0.021
69 | AATGAGGC | -0.112 ± 0.082
70 | GCAATCAC | 0.0766 ± 0.03
71 | ATTCCCAC | 0.199 ± 0.014
72 | AAAGGCGG | -0.0183 ± 0.038
73 | TAGGCAAA | -0.0377 ± 0.012
74 | ACATTTAA | -0.00963 ± 0.13
75 | GCCCGCAC | 0.0136 ± 0.025
76 | ACGATATG | -0.0679 ± 0.044
77 | ATGTACGC | -0.112 ± 0.0071
78 | CTGACTCC | -0.143 ± 0.047
79 | GCACGGTA | -0.0373 ± 0.034
80 | CTCTTAAC | -0.115 ± 0.062
81 | ACGAGAAC | 0.0117 ± 0.058
82 | ACCTGATC | 0.0528 ± 0.11
83 | TATCAAGA | -0.184 ± 0.07
84 | AACGCTTG | 0.134 ± 0.018
85 | TGTATAAA | -0.0627 ± 0.098
86 | AAACCCTC | -0.06053 ± 0.00052
87 | ACAGAACC | -0.0988 ± 0.0082
88 | TACTATAA | -0.154 ± 0.066

Row | Sequence | PBM E-score of 8-mer
89 | CAGCAACC | 0.013 ± 0.0026
90 | CGAGAGCG | 0.187 ± 0.0052
91 | AACGATGA | -0.141 ± 0.014
92 | GTTTACGA | 0.0331 ± 0.0092
93 | ACCCATAT | 0.0957 ± 0.013
94 | ACTCGGAG | 0.0452 ± 0.029
95 | CCGCTCCG | -0.262 ± 0.032
96 | CAGGCGCG | 0.3152 ± 0.00098
97 | AGTTCCTA | -0.000805 ± 0.035
98 | GCCATGGC | -0.312 ± 0.041
99 | ACAGAAGC | -0.0717 ± 0.045
100 | CTCCCAGA | -0.0343 ± 0.073
101 | AGCACCCA | 0.193 ± 0.068
102 | ATACGAAC | -0.198 ± 0.016
103 | GAGGGGGA | -0.131 ± 0.032
104 | GCCTGGGA | -0.179 ± 0.0051
105 | ACTGATCG | -0.0574 ± 0.0033
106 | ACGGCAGA | 0.05 ± 0.074
107 | CATCGAAC | -0.0846 ± 0.014
108 | AAACTACA | 0.047 ± 0.018
109 | ATCATGTG | -0.0614 ± 0.022
110 | AACTTAGT | -0.0288 ± 0.05
